Reference: patent US11420968B2 (priority 2018, dated 2022)
Where two headings read alike, the source gives them in different places.

Assays:
[1] = test system: RS4;11 cells; test: cells; details: Homo sapiens
[2] = test system: Molt-4 cells; test: cells; details: Homo sapiens
[3] = RS4-11, 48 h, read-out: Cellular activity (IC50, nM) RS4;11
[4] = RS4-11, read-out: Celluclar activity (IC50, nM) RS 4, 11
[5] = MOLT-4, read-out: Celluclar activity (IC50, nM) Molt-4
[6] = MOLT-4, read-out: Cellular activity (IC50, nM) Molt-4
[7] = RS4-11, 48 h, read-out: Cellular activity (IC50, nM) RS4, 11

| Compound | IC50 [1, 3] [nM] | IC50 [1, 4] [nM] | IC50 [2, 5] [nM] | IC50 [2, 6] [nM] | IC50 [1, 7] [nM] |
| --- | --- | --- | --- | --- | --- |
| CC1CC(CNc2ccc(S(=O)(=O)NC(=O)c3ccc(N4CCC5(CC4)CC(N4CCC[C@H]4c4ccccc4C4CC4)C5)cc3Oc3cnc4[nH]ccc4c3)cc2[N+](=O)[O-])CC(C)O1 (stereo partly drawn) [Example F120, 2-((1H-pyrrolo[2,3-b]pyridin-5-yl)oxy)-4-(2-((S)-2-(2-cyclopropylphenyl)pyrrolidin-1-yl)-7-azaspiro[3.5]nonan-7-yl)-N-((4-(((2,6-dimethyltetrahydro-2H-pyran-4-yl)methyl)amino)-3-nitrophenyl)sulfonyl)benzamide] | 2.7 | 2.7 | 2520 | 2520 | – |
| CN1CCC(Cc2ccccc2[C@H]2CCCN2c2ccc(-c3ccc(C(=O)NS(=O)(=O)c4ccc(NCC5CCOCC5)c([N+](=O)[O-])c4)c(Oc4cnc5[nH]ccc5c4)c3)cc2)CC1 [Example A112, (R)-3-((1H-pyrrolo[2,3-b]pyridin-5-yl)oxy)-4′-(2-(2-((1-methylpiperidin-4-yl)methyl)phenyl)pyrrolidin-1-yl)-N-((3-nitro-4-(((tetrahydro-2H-pyran-4-yl)methyl)amino)phenyl)sulfonyl)-[1,1′-biphenyl]-4-carboxamide] | 3.4 | – | – | 1210 | – |
| Cn1cc2cccc(C3CCCN3c3ccc(-c4ccc(C(=O)NS(=O)(=O)c5ccc(NCC6CCOCC6)c([N+](=O)[O-])c5)c(Oc5cnc6[nH]ccc6c5)c4)cc3)c2n1 (centres unmarked) [Example A142, 3-((1H-pyrrolo[2,3-b]pyridin-5-yl)oxy)-4′-(2-(2-methyl-2H-indazol-7-yl)pyrrolidin-1-yl)-N-((3-nitro-4-(((tetrahydro-2H-pyran-4-yl)methyl)amino)phenyl)sulfonyl)-[1,1′-biphenyl]-4-carboxamide] | 108 | – | – | 2510 | – |
| CC(=O)N1CCOC(CNc2ccc(S(=O)(=O)NC(=O)c3ccc(C4=CCC(N5CCCC5c5ccccc5C5CC5)CC4)cc3Oc3cnc4[nH]ccc4c3)cc2[N+](=O)[O-])C1 (centres unmarked) [Example G32, 3-((1H-pyrrolo[2,3-b]pyridin-5-yl)oxy)-N-((4-(((4-acetylmorpholin-2-yl)methyl)amino)-3-nitrophenyl)sulfonyl)-4′-(2-(2-cyclopropylphenyl)pyrrolidin-1-yl)-2′,3′,4′,5′-tetrahydro-[1,1′-biphenyl]-4-carboxamide] | – | – | – | > 10000 | 123 |
| O=C(NS(=O)(=O)c1ccc(NCC2CCOCC2)c([N+](=O)[O-])c1)c1ccc(C2=CCC(N3CCCC3c3cccnc3)CC2)cc1Oc1cnc2[nH]ccc2c1 (centres unmarked) [Example C5, 3-((1H-pyrrolo[2,3-b]pyridin-5-yl)oxy)-N-((3-nitro-4-(((tetrahydro-2H-pyran-4-yl)methyl)amino)phenyl)sulfonyl)-4′-(2-(pyridin-3-yl)pyrrolidin-1-yl)-2′,3′,4′,5′-tetrahydro-[1,1′-biphenyl]-4-carboxamide] | – | – | – | > 10000 | 4260 |
| O=C(NS(=O)(=O)c1ccc(NCC2CCOCC2)c([N+](=O)[O-])c1)c1ccc(C2=CCC(N3CCCC3c3cccc4c3OCO4)CC2)cc1Oc1cnc2[nH]ccc2c1 (centres unmarked) [Example C139, 3-((1H-pyrrolo[2,3-b]pyridin-5-yl)oxy)-4′-(2-(benzo[d][1,3]dioxol-4-yl)pyrrolidin-1-yl)-N-((3-nitro-4-(((tetrahydro-2H-pyran-4-yl)methyl)amino)phenyl)sulfonyl)-2′,3′,4′,5′-tetrahydro-[1,1′-biphenyl]-4-carboxamide] | – | – | – | > 10000 | 346 |
| O=C(NS(=O)(=O)c1ccc(NCC2CCOCC2)c([N+](=O)[O-])c1)c1ccc(N2CCC(N3CCCC3c3ccccc3Cl)CC2)cc1Oc1cnc2[nH]ccc2c1 (centres unmarked) [Example E3, 2-((1H-pyrrolo[2,3-b]pyridin-5-yl)oxy)-4-(4-(2-(2-chlorophenyl)pyrrolidin-1-yl)piperidin-1-yl)-N-((3-nitro-4-(((tetrahydro-2H-pyran-4-yl)methyl)amino)phenyl)sulfonyl)benzamide] | – | – | – | > 10000 | 931 |
| CC(C)Cc1ccccc1C1CCCN1C1CC=C(c2ccc(C(=O)NS(=O)(=O)c3ccc(NCC4CCOCC4)c([N+](=O)[O-])c3)c(Oc3cnc4[nH]ccc4c3)c2)CC1 (centres unmarked) [Example C21, 3-((1H-pyrrolo[2,3-b]pyridin-5-yl)oxy)-4′-(2-(2-isobutylphenyl)pyrrolidin-1-yl)-N-((3-nitro-4-(((tetrahydro-2H-pyran-4-yl)methyl)amino)phenyl)sulfonyl)-2′,3′,4′,5′-tetrahydro-[1,1′-biphenyl]-4-carboxamide] | – | – | – | 5440 | 132 |
| O=C(NS(=O)(=O)c1ccc(NCC2CCOCC2)c([N+](=O)[O-])c1)c1ccc(-c2ccc(N3CCCC3c3ccccc3N3CCOCC3)cc2)cc1Oc1cnc2[nH]ccc2c1 (centres unmarked) [Example A122, 3-((1H-pyrrolo[2,3-b]pyridin-5-yl)oxy)-4′-(2-(2-morpholinophenyl)pyrrolidin-1-yl)-N-((3-nitro-4-(((tetrahydro-2H-pyran-4-yl)methyl)amino)phenyl)sulfonyl)-[1,1′-biphenyl]-4-carboxamide] | 48 | – | – | 6920 | – |
| O=C(NS(=O)(=O)c1ccc(NCC2CCOCC2)c([N+](=O)[O-])c1)c1ccc(-c2cc3nc(N4CCCC4c4ccccc4)ccn3n2)cc1Oc1cnc2[nH]ccc2c1 (centres unmarked) [Example F1, 2-((1H-pyrrolo[2,3-b]pyridin-5-yl)oxy)-N-((3-nitro-4-(((tetrahydro-2H-pyran-4-yl)methyl)amino)phenyl)sulfonyl)-4-(5-(2-phenylpyrrolidin-1-yl)pyrazolo[1,5-a]pyrimidin-2-yl)benzamide] | – | – | – | 6550 | 1800 |
| CC1(C)CC(c2ccccc2C2CC2)N(C2CC3(CCN(c4ccc(C(=O)NS(=O)(=O)c5ccc(NCC6CCOCC6)c([N+](=O)[O-])c5)c(Oc5cnc6[nH]ccc6c5)c4)CC3)C2)C1 (centres unmarked) [Example F82, 2-((1H-pyrrolo[2,3-b]pyridin-5-yl)oxy)-4-(2-(2-(2-cyclopropylphenyl)-4,4-dimethylpyrrolidin-1-yl)-7-azaspiro[3.5]nonan-7-yl)-N-((3-nitro-4-(((tetrahydro-2H-pyran-4-yl)methyl)amino)phenyl)sulfonyl)benzamide] | 7.6 | – | – | 2490 | – |
| CN1CC=C(c2ccccc2[C@H]2CCCN2c2ccc(-c3ccc(C(=O)NS(=O)(=O)c4ccc(NCC5(F)CCN(C6COC6)CC5)c([N+](=O)[O-])c4)c(Oc4cnc5[nH]ccc5c4)c3)cc2)CC1 [Example G121, (R)-3-((1H-pyrrolo[2,3-b]pyridin-5-yl)oxy)-N-((4-(((4-fluoro-1-(oxetan-3-yl)piperidin-4-yl)methyl)amino)-3-nitrophenyl)sulfonyl)-4′-(2-(2-(1-methyl-1,2,3,6-tetrahydropyridin-4-yl)phenyl)pyrrolidin-1-yl)-[1,1′-biphenyl]-4-carboxamide] | 1.6 | – | – | > 10000 | – |
| [2H]C([2H])([2H])N(c1ccccc1[C@@H]1CCCN1C1CC2(CCN(c3ccc(C(=O)NS(=O)(=O)c4ccc(NC[C@H]5CC[C@](C)(O)CC5)c([N+](=O)[O-])c4)c(Oc4cnc5[nH]ccc5c4)c3)CC2)C1)C([2H])([2H])[2H] [Example F64, 2-((1H-pyrrolo[2,3-b]pyridin-5-yl)oxy)-4-(2-((S)-2-(2-(bis(methyl-d3)amino)phenyl)pyrrolidin-1-yl)-7-azaspiro[3.5]nonan-7-yl)-N-((4-((((1r,4r)-4-hydroxy-4-methylcyclohexyl)methyl)amino)-3-nitrophenyl)sulfonyl)benzamide] | 0.8 | 0.8 | 2440 | 2440 | – |
| CC1(C)CC(CNc2ccc(S(=O)(=O)NC(=O)c3ccc(N4CCC5(CC4)CC(N4CCC[C@H]4c4ccccc4C4CC4)C5)cc3Oc3cnc4[nH]ccc4c3)cc2[N+](=O)[O-])CCO1 (stereo partly drawn) [Example F127, 2-((1H-pyrrolo[2,3-b]pyridin-5-yl)oxy)-4-(2-((S)-2-(2-cyclopropylphenyl)pyrrolidin-1-yl)-7-azaspiro[3.5]nonan-7-yl)-N-((4-(((2,2-dimethyltetrahydro-2H-pyran-4-yl)methyl)amino)-3-nitrophenyl)sulfonyl)benzamide] | 2.1 | – | – | 1790 | – |
| O=C(NS(=O)(=O)c1ccc(NCC2CCOCC2)c([N+](=O)[O-])c1)c1ccc(-c2ccc(N3C[C@@H](F)C[C@@H]3c3ccccc3C3CC3)cc2)cc1Oc1cnc2[nH]ccc2c1 (single isomer, unassigned) [Example A145a, 3-((1H-pyrrolo[2,3-b]pyridin-5-yl)oxy)-4′-((2R,4S) or (2S,4R)-2-(2-cyclopropylphenyl)-4-fluoropyrrolidin-1-yl)-N-((3-nitro-4-(((tetrahydro-2H-pyran-4-yl)methyl)amino)phenyl)sulfonyl)-[1,1′-biphenyl]-4-carboxamide] | 79 | – | – | 5960 | – |
| CN1C2CCC1CN(c1ccccc1[C@H]1CCCN1c1ccc(-c3ccc(C(=O)NS(=O)(=O)c4ccc(NCC5CCOCC5)c([N+](=O)[O-])c4)c(Oc4cnc5[nH]ccc5c4)c3)cc1)C2 (stereo in doubt) [Example A119, 3-((1H-pyrrolo[2,3-b]pyridin-5-yl)oxy)-4′(2-(2-(8-methyl-3,8-diazabicyclo[3.2.1]octan-3-yl)phenyl)pyrrolidin-1-yl)-N-((3-nitro-4-(((tetrahydro-2H-pyran-4-yl)methyl)amino)phenyl)sulfonyl)-[1,1′-biphenyl]-4-carboxamide] | 38 | – | – | > 1000 | – |
| CN1CC=C(c2ccccc2[C@@H]2CCCN2c2ccc(-c3ccc(C(=O)NS(=O)(=O)c4ccc(NCC5CCOCC5)c([N+](=O)[O-])c4)c(Oc4cnc5[nH]ccc5c4)c3)cc2)CC1 [Example A68-S, (S)-3-((1H-pyrrolo[2,3-b]pyridin-5-yl)oxy)-4′-(2-(2-(1-methyl-1,2,3,6-tetrahydropyridin-4-yl)phenyl)pyrrolidin-1-yl)-N-((3-nitro-4-(((tetrahydro-2H-pyran-4-yl)methyl)amino)phenyl)sulfonyl)-[1,1′-biphenyl]-4-carboxamide] | 196 | – | – | > 10000 | – |
